The list shows a part of the results.
Molecular target: T1, OsWOX13 (Oryza sativa, UniProt Q5QMM3 1-267)
T1 sequence: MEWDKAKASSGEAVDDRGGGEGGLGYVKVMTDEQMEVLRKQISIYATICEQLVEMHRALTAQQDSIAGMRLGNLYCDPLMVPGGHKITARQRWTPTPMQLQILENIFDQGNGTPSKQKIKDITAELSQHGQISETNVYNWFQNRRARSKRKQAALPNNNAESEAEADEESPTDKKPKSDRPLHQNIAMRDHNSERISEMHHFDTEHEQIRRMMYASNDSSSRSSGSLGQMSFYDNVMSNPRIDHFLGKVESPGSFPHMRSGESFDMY
Assay: protein-binding microarray (RPBM); PBS, 2% BSA, 51.3 ng/ul salmon testes DNA, 50 uM zinc acetate, 200 nM TF, 25 C, 1 h; high values mean tight binding
Conditions: protein: recombinant; tags: N-terminal polyhistidine and DsRed monomer fusion (pET32a); label: CyDye5-dUTP incorporated in the synthesized complementary strand; 3' TTTTT single-stranded linker to array surface; dsDNA, one strand shown
How it was run: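 Binding signal here means per-feature fluorescence intensity in arbitrary units. The values were read on an Axon 4000B scanner after a custom Agilent array, double-stranded by primer extension with Cy5-dUTP, was incubated with 200 nM protein at 25 °C for 1 h in PBS with 2% BSA, salmon testes DNA and 50 µM zinc acetate, then washed. The proteins were transcription factors with an N-terminal polyhistidine tag and DsRed, expressed in E. coli BL21-CodonPlus and purified on Ni–NTA.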

Sequence | binding signal
TTGGATTGGATACGGAAATACAGAAAGGGGTGGTAACTAACGGAGTCACCTAGTGCAG | 6120 fluorescence intensity (a.u.)
ATGATTTGACACTTTATATGTTGCCAATTTGATTGTATTTCGGAGTCACCTAGTGCAG | 29000 fluorescence intensity (a.u.)
GAGAGTCTCGCCAATCTATGCAGCAATAATTACAACGAGCCGGAGTCACCTAGTGCAG | 3890 fluorescence intensity (a.u.)
GCTCAATCATGTGGTTACCTTCCATACCATCTTTCTGCCTCGGAGTCACCTAGTGCAG | 18900 fluorescence intensity (a.u.)
CGGAGCAGATTAGCGCTAATGCATAAAGCTGGAGTACTCCCGGAGTCACCTAGTGCAG | 4250 fluorescence intensity (a.u.)
AGAAATTGAGAGGATGACATGTGGATCCTACATATCAGTGCGGAGTCACCTAGTGCAG | 33400 fluorescence intensity (a.u.)
TTTATGATTTCTTGGACAATTTTGGAGCCATTTCGTTTAGCGGAGTCACCTAGTGCAG | 10600 fluorescence intensity (a.u.)
TATAAAATTATAGATAATATAACATGTTTGCATGATGTTTCGGAGTCACCTAGTGCAG | 5670 fluorescence intensity (a.u.)
AATCTTTATTGATTGTAAATTTAGCTTATGTATTGGTTAACGGAGTCACCTAGTGCAG | 27000 fluorescence intensity (a.u.)
ATTGCACTCAAATAAATTAGGAAATCTCCTTTGTGAATTCCGGAGTCACCTAGTGCAG | 3440 fluorescence intensity (a.u.)
CTAAAATTTATTTATTTTAATAATATTCTCCCATGATTAGCGGAGTCACCTAGTGCAG | 6240 fluorescence intensity (a.u.)
TATATATCTTAATTAACGTTGCTGGTGTACTGAGAACAAGCGGAGTCACCTAGTGCAG | 4930 fluorescence intensity (a.u.)
ATTCATTTAGATGTTAATAAATTTAGACATATATATGTATCGGAGTCACCTAGTGCAG | 9560 fluorescence intensity (a.u.)
CTGGACTGTCAAATCAAGGAGGATTGCGTACTAATCATGTCGGAGTCACCTAGTGCAG | 9940 fluorescence intensity (a.u.)
TGATCAAATAATTGACCATAATTTTCCAGCAATTTTAAATCGGAGTCACCTAGTGCAG | 21600 fluorescence intensity (a.u.)
AGTAATTTACTTGCTAGCTTGCAACTATTTCTTAGTACATCGGAGTCACCTAGTGCAG | 3460 fluorescence intensity (a.u.)
TAGCTAATTCATATAATAATCACCTATAAACATATACTACCGGAGTCACCTAGTGCAG | 3660 fluorescence intensity (a.u.)
TTGACTAATCTATGTGTATATCCTGATACTGGCCGACATCCGGAGTCACCTAGTGCAG | 3400 fluorescence intensity (a.u.)
ATATTTAAATTAATATTTTAGAACGGCCATTATATAAAATCGGAGTCACCTAGTGCAG | 4710 fluorescence intensity (a.u.)
ATATCTATCTCTGATTATCCAATTGAAGTGCAACAAGAACCGGAGTCACCTAGTGCAG | 4450 fluorescence intensity (a.u.)
ATCAAAATATCAGATACAGCCAATCAGCCATGCGTACCAACGGAGTCACCTAGTGCAG | 4580 fluorescence intensity (a.u.)

Sequence | binding signal
AATGTGTTAGCGTTTAATTTGCGATTGGATTTGTTTCAGGCGGAGTCACCTAGTGCAG | 3560 fluorescence intensity (a.u.)
AAATGAATGCTGATTGCTCCCACGTTGGAAAATTGGGGCTCGGAGTCACCTAGTGCAG | 21100 fluorescence intensity (a.u.)
GTTACAGTGTAATTTATGAAACTTACACGGTAACTTTTGTCGGAGTCACCTAGTGCAG | 3720 fluorescence intensity (a.u.)
TTGTAATTACATAAATTATACGAATTGTAAAGATTTGGCACGGAGTCACCTAGTGCAG | 54600 fluorescence intensity (a.u.)
TACTAATCATAGACTAATTAGGCTCAAAAGATTCGTCTCACGGAGTCACCTAGTGCAG | 31300 fluorescence intensity (a.u.)
AAGGAAAAGGAAAAGAAAATAATTGACGACGTTGACCTCGCGGAGTCACCTAGTGCAG | 3330 fluorescence intensity (a.u.)
AGGGATAAATAATTGTTAGAGTATTTTATCATCTCAACTGCGGAGTCACCTAGTGCAG | 3960 fluorescence intensity (a.u.)
AAAGATTTGTCTCACAATTTACACACAATCTGTGTAATTACGGAGTCACCTAGTGCAG | 3600 fluorescence intensity (a.u.)
AAAATTAAGCTCTAATTAATTAATCTTTTGTAGAAGTTAACGGAGTCACCTAGTGCAG | 13900 fluorescence intensity (a.u.)
TCACTTATCACCAGTATTGATTTGTTGAATTATTATCATTCGGAGTCACCTAGTGCAG | 9780 fluorescence intensity (a.u.)
CACCAAAACAAATTTGTTAAACACAAGCGTTGATGAAGCACGGAGTCACCTAGTGCAG | 10300 fluorescence intensity (a.u.)
TCGTCTTCTCCACATCAATCACCAGCTATCTCGATCGTGACGGAGTCACCTAGTGCAG | 7980 fluorescence intensity (a.u.)
TAAATTGACACATCACCTCTAGGATCCTACGTGGCGTTGACGGAGTCACCTAGTGCAG | 38000 fluorescence intensity (a.u.)
TGGATTGAAACCTAAATTGCCCTAATTTCTTAGACCCCTACGGAGTCACCTAGTGCAG | 33600 fluorescence intensity (a.u.)
ATGGCTATAATTGTGAACCAAGTCATCAAACCTACTGGTTCGGAGTCACCTAGTGCAG | 4510 fluorescence intensity (a.u.)
GTATTAATTTCTACTACTATATACGAAGGGGTACCCTTTTCGGAGTCACCTAGTGCAG | 3400 fluorescence intensity (a.u.)
ATTTAGACAGGTTCAGACCATCTCAATAAGAGGTACGTAACGGAGTCACCTAGTGCAG | 19500 fluorescence intensity (a.u.)
TTTAATAGGATGTATCATAAAATTAAATTTATCATAGAACCGGAGTCACCTAGTGCAG | 11700 fluorescence intensity (a.u.)
GATCGATCTCGTTAATTAGGGTTAGATCACCGGCCGGCACCGGAGTCACCTAGTGCAG | 4420 fluorescence intensity (a.u.)
CCATTTTAAATCATTGAAATCCCTGTATATGCATTACAAGCGGAGTCACCTAGTGCAG | 4730 fluorescence intensity (a.u.)
TTTGATGAAGCGATGATTATTTTAAATTTTCTTTTGGTTTCGGAGTCACCTAGTGCAG | 23300 fluorescence intensity (a.u.)

Sequence | binding signal
GGGTTCTTCCAGGTTAATTAATTAGCAAACACACACTTACCGGAGTCACCTAGTGCAG | 14100 fluorescence intensity (a.u.)
GAATGACTCAATTAGTCCGAATGACTGAAATTCCACGGGGCGGAGTCACCTAGTGCAG | 14000 fluorescence intensity (a.u.)
ATCCATAATGTAAAATTTTACCGTGTCACATCGAATATTACGGAGTCACCTAGTGCAG | 4480 fluorescence intensity (a.u.)
CCTAAATTGGAGGAGGGGATAAACTACATTGAAATTTCATCGGAGTCACCTAGTGCAG | 20300 fluorescence intensity (a.u.)
TACAGCCGTTGACAGTTAACTGAACTTTCACTAGTTCAATCGGAGTCACCTAGTGCAG | 6220 fluorescence intensity (a.u.)
GAGTAATATTCAACATTTTGATTAGAGGTTAACCGGTGTACGGAGTCACCTAGTGCAG | 5370 fluorescence intensity (a.u.)
GCTAATTGCCGCAAGCGAAGTCTCTCGCGCGCGCACCTTGCGGAGTCACCTAGTGCAG | 13800 fluorescence intensity (a.u.)
ATCACTTACAAGATTGACCAAATCACTTACAAGATTGGCCCGGAGTCACCTAGTGCAG | 14000 fluorescence intensity (a.u.)
GCACTAATTTATCTGCTAGTCTTATCTTGGCCACTTGGAACGGAGTCACCTAGTGCAG | 16600 fluorescence intensity (a.u.)
ATATATGTGGATAATAATTGAAGTACTTGCAGTTGCAGTACGGAGTCACCTAGTGCAG | 4110 fluorescence intensity (a.u.)
TTCAAATCATCTATAGTCAATTTAATAGCCAATTCATATACGGAGTCACCTAGTGCAG | 5390 fluorescence intensity (a.u.)
TATATATATATATATATATATTATATGGCTTAGCTTGCTGCGGAGTCACCTAGTGCAG | 10600 fluorescence intensity (a.u.)
TTAATTAACGGAATTACTCAACAACTCACATGGGACATGGCGGAGTCACCTAGTGCAG | 21300 fluorescence intensity (a.u.)
AGCTGAAATTAAGAACAGACAGACATGATCACAGATCGAGCGGAGTCACCTAGTGCAG | 10100 fluorescence intensity (a.u.)
TAGTTATATTTGATTATCTTGCGAACCTATATATAATATGCGGAGTCACCTAGTGCAG | 5250 fluorescence intensity (a.u.)
ATATTAATTGATGTTTTGGACAAGGTTGAGGTTAAACTTTCGGAGTCACCTAGTGCAG | 38200 fluorescence intensity (a.u.)
TGATAAATTTATTTCTTCAAATTCAGAAAGCTTGATGGTACGGAGTCACCTAGTGCAG | 22900 fluorescence intensity (a.u.)
AATAATGATAACTGATAAGGGTTTGTTTAGTCTGGATGAACGGAGTCACCTAGTGCAG | 18800 fluorescence intensity (a.u.)
TTAAATGTCAATTTTCTCCACATAGACTGGCCCATCGGTCCGGAGTCACCTAGTGCAG | 39400 fluorescence intensity (a.u.)
TTTGACTGTTTTGAACCCATGAACAAGTGCTGCACCAGAACGGAGTCACCTAGTGCAG | 5750 fluorescence intensity (a.u.)
TATTTCACATGGTAATTAGACAGCTAATTCCAAGCTTAAACGGAGTCACCTAGTGCAG | 9560 fluorescence intensity (a.u.)

Sequence | binding signal
GCAAATATGTAAATTACACCTGGAGACATAGGTTGTGTTTCGGAGTCACCTAGTGCAG | 8650 fluorescence intensity (a.u.)
TAGATAGATAGATATGTTTGTGTTTAAACAATAGGATTAACGGAGTCACCTAGTGCAG | 13600 fluorescence intensity (a.u.)
TTCTAAATTTGTGATGACAATAAGATTAACCTGTTTAAATCGGAGTCACCTAGTGCAG | 7850 fluorescence intensity (a.u.)
CCTTTGATTCAAATGATTGTAGCTTTCCAAATCCTATGAACGGAGTCACCTAGTGCAG | 7620 fluorescence intensity (a.u.)
TGTTTAATTAGTTAAGCATCTCTAGTTAAGTTAGATCAAACGGAGTCACCTAGTGCAG | 4520 fluorescence intensity (a.u.)
ATGAGCTCAAACTGGCTGATTTGATAGGAGGACAAGCTGCCGGAGTCACCTAGTGCAG | 5410 fluorescence intensity (a.u.)
ATTAATTACGTGTACAAATTTTCAGCCCATCAAACGGGCGCGGAGTCACCTAGTGCAG | 25100 fluorescence intensity (a.u.)
TGTGACTGCTCCTAAATGACATGCGACCCTCTAATAAATTCGGAGTCACCTAGTGCAG | 13500 fluorescence intensity (a.u.)
GATGATTGGTCCAAGTCATGGCTTCCGCTTTCCCTTTTGTCGGAGTCACCTAGTGCAG | 35900 fluorescence intensity (a.u.)
GCCAAAACCAAAATTTAAATTTTCGTACTTAATTTTGAAGCGGAGTCACCTAGTGCAG | 7460 fluorescence intensity (a.u.)
GATTATTGATTATCAGTAAGGGAGATTGAAAGTAACAGAACGGAGTCACCTAGTGCAG | 25700 fluorescence intensity (a.u.)
GATAAGAATCTAAATAGATTAGATTAAACTAGATTATATTCGGAGTCACCTAGTGCAG | 6100 fluorescence intensity (a.u.)
TACCGGATGATTTGTGTTCCTTTGCTGACTGTAGTGACGTCGGAGTCACCTAGTGCAG | 14200 fluorescence intensity (a.u.)
TTTTAATTAATTAGCTGTAAGTGTGTAAATCAACCATAACCGGAGTCACCTAGTGCAG | 35000 fluorescence intensity (a.u.)
TCTAAACATGTAATTTTCAAGTTCACGGACCAAAGTAACACGGAGTCACCTAGTGCAG | 3950 fluorescence intensity (a.u.)
TATTGATGGTCAAATTTCAAATTATACTGTTAACATTTGACGGAGTCACCTAGTGCAG | 9870 fluorescence intensity (a.u.)
ATAACAAAACAAATTACAGATTTTATCAGAATACTGCGAGCGGAGTCACCTAGTGCAG | 8000 fluorescence intensity (a.u.)
CAACAAATGGCTGCACTAATTGGGGCTAATTGTATATAGTCGGAGTCACCTAGTGCAG | 20500 fluorescence intensity (a.u.)
GTTTTGAATATTAATTTCATTCCTCTCGTGGATTCAGTTACGGAGTCACCTAGTGCAG | 3920 fluorescence intensity (a.u.)
AACCCTGATTTATGGACGGGTTTGTTGCTCCAGCAGACAACGGAGTCACCTAGTGCAG | 13200 fluorescence intensity (a.u.)
CATGGCAAACTAATTAAATTTCTCAACACCTAATTTTCCCCGGAGTCACCTAGTGCAG | 8740 fluorescence intensity (a.u.)
